Results as given in the RNAGym collection of RNA variant scans (doi:10.7554/elife.90254).
The source gives no read counts; variants with many changes may rest on few reads.

B1: OR4K15 (parent)
chain: GUUAACGGUCAUAGGCCAUGGAAACUAGGAGCACCAUUUCGCUGCCAGUGAAGAAAUGAACAAAGAAAAUCUGGGCCAGGCAGGCAUCAAAAGAAAUAGUCUUGCGCUCAACCAGAAAGUCUGUAAUCAUUUUAAGGGUA

Variants of: B1
Test: self-cleavage, relative activity (ratio to wild type); higher = more cleavage; in vitro, sequencing; the parent is a self-cleaving ribozyme

Variant	self-cleavage
GUUAACGGUCAUAGGCCAUGGAGACUAGGAGCACCAUUUCGCUGCCAGUGAAGAAAUGAACAAAGAAAAUCUGGGCCAGGCUGGCAUCAAAAGAAAUAGUCUUGCGCUCAACCAGAAAGUCUGUAAUCAUUUUAAGGGUG	0.18
GUUAACGGUCAUAGGCCAUGGAAACUAGGAGCACCGUUUCGCUGCCAGUGAAGAUAUGAACAAAGAAAAUCUGGGCCAGGCAGGCAUCAAAAGAAAUAGUUUUGCGCUCAACCAGAAAGUCUGUAAUCAUUUUAAGGGUA	0.11
GUGAACGGUCAUAGGCCAAGGAAACUAGGAGCACCAUUUCGCUGCCAGUGAAGAAAUGAGCAAAGAAAAUCUGGGCCAGGCAGGCAUCAAAAGAAAUAGUCUUGCGCUCAGCCAGAAAGUCUGAAAUCAUUUUAAGGGUA	0.01
GUUAACGGUCAUAGGCCAUGGAAACUAGGAGCACCAUUUCGCUGCCCGUGAAGAAAUGAACAAAGAUAAUCUGGGCCAGGCAGGCAUCAAAAGAAAUAGUCUUGCGCUCAACCAGAAAGUCUGUAAUCACUUUAAGGGUA	2.07
GUUAACGGUCAUAGGCCAUGGAAACUAGGAGCACCACUUCGCUGCCAGUGAAGAAAUGAACAAAGAAAAUCUGGGCCAGGCAGGCAUCAAAAGAAAUAGUCUUGUGCUCAACCAAAAAGUCUGUAAUGAUUUUAAGGGUA	0
GUUAACGGUCAUAGGCCAUGGAAACUAGGAGUACCAUUUCGCUGCCAGUGAAGUAAUGAACAAAGAAAAUCUGGGCCAGGCAGGCAUCAAAAGAAACAGUCUUGCGCUCAACUAGAAAGUCUGUAAUCAUUUUAAGGGUA	0.05
GAUAACGGUCAUAGGCCAUGGAAGCUAGGAGCACCAUUUCGCUGCCAGUGAAGAAAUGAACGAAGAAAAUCUGGGCCAGGCAGGCAUCAAAAGAAAUAGUCUUGCGCUCAACCAGAAAGUCUGCAAUCAUUUUAAGGGUA	0.62
GUUAACGGUCAUAGGCCAUGGAAACUAGGAGCACCAUUUCGCUGCCAGUGAAGAAAUGCACAAAGAAGAUCUGGGCCAGGCAGGCAUCAAAAGAAAUAGUCUAGCGCUCAACCAGAAAGUCUGUAAUCAUUUUAAGGGUA	0.53
GUUAACGGUCAUAGGCCAUGGAAACUAAGAGCACCAUUUCGCUGCCAGUGAAGAAGUGAACAAAGAAAAUCUGGGCCAGGCAGGCAUCACAAGAAAUAGUCUUGCGCUCAACCAGAAAGUCUGAAAUCAUUUUAAGGGUA	0.56
GUUAACGGACAUAGGCCAUGGAAACUAGGAGCACCAUUUCGCUGCCAGUGAAGAAAUGAACAAAGAAAAUCUGGGCCAGGCAGGCAUCAAAAGAAAUAGUCUUGCGCUCAACCAGAAAGUCUGUAAUCAUUUUAAUGGUG	1.62
GUUAACGGUCAUGGGCCAAGGAAACUAGGAGCACCAUUUCGCUGCCAGUGAAGGAAUGAACAAAGAGAAUCUGGGCCAGGCAGGCAUCAAAAGAAAUAGUCUUGCGCUCAACCAGAAAGUCUGUAAUCAUUUUAAGGGUA	0.32
GUUAACGGUCAUAGGUCAUGGAAACUAGGAGCACCAUUUCGCUGCCAGUGAAGAAAUGAACAAAGAAAAUCUGGGCCAGGCAGGCAUCAAGAGAGAUAGUCUUGCGCUCAACCAGAAAGUCUGUAAUCAUUUUAAGGGUC	2.78
GUUAACGGUCAUAGGCCAAGGAAACUAGGGGCACCAUUUCGCUGCCAGUGGAGAAAUGAACAAAGAAAAUCUGGGCCAGGCAGGCAUCAAAAGAAAUAGUCUUGCGCUCAACCAGAAAGUCUGUAAUCAUUCUAAGGGUA	1.45
GUUAACGGUCAUAGGCCAUGGAAACUAGGAGCACCAUUUCGCUGCCAGUAAAGAAAUGAACAAAGAAAAUCUGGGCCAGGCAGGCAUCAAAAGAAAUAGUCUAGCGCCCAACCAGAAAGUCUGUAAUCAUUAUAAGGGUA	0
GUUAACGGUCAUAGGCCAUGGAGACUAGGAGCGCCAUUUCGCUGCCAGUGAAGAAAUGAACAAAGAAAAUCCGGGCCAGGCAGGCUUCAAAAGGAAUAGUCUUGCGCUCAACCAGAAAGACUGUAAUCAUUUUAAGGGUA	0.06
GUUAACGGUCAUAGGCCAUGGAAACUAGGAGUACCAUUUCGCUGCCAGUGAAGAGAUGUACAAAGAAAAUCUGGGCCAGGCAGGCAUCAAAAGGAAUAGUCUUGCGCUCAACCAGAAAGUCUGUAAUCAUUUUAAGGGUA	0.84
GUUAACGGUCAUAGGCCAUGGAAACUAGGGGCACCAUUUCGCUGCCUGUGAAGAUAUGAACAAAGAAAAUCUGGGCCAGGCAGGCAUCAAAAGAAAUAGUCUUGCGCUCAACCAGUAAGUCUGUAAUCAUUUUAAGGGUA	0.18
GUUAACGGUCAUAGGCCAUGGAAACUAGGAGCGCCAUUUCGCUGCCAGUGAGGAAAAGAACAAAGAGAAUCUGGGCCAGGCAGGCAUCAAAAGAAAUAGUCUUGCGCUCAACCAGAAAGUCUGUAAUCAUUUUAAGGGUA	0.54
GUUAACGGUCAUAGGCCAUGAAAACUAGGAGCACCAUUUCGCUGCCAGUGAAGAAAUGAACAAAGAAAAUCUGGGCCAGGCAGGCAUCAAAAGAAGCAGUCUUGCGCCCAACCAGAAAGUCUGUAAUCAUUUUAAGGGUA	0.01
GUUAACGGUCAUAGGCCAUGGAAACUAGGAGCACCAUUUCGCUGCCAGUGAAGAAAUGCACAAAGAAAAUCUGGGCCAGGCAGGCAUCAAAAGAAAUAGUCUAGCGCUCAACCAGAAAGUCUGUGAUCAUUUUAAGGGUA	0.15
GUUAGCGGUCAUAGGCCAUGGAAACCAGGAGCACCAUUUCGCUGCCAGUGAAGAAAUGAACAAAGAAAAUCAGGGCCAGGCAGGCAUCAAAAGAAAUAGUCUUGCGCUCAACCAGAAAGUCUGUAAUCGUUUUAAGGGUA	0.11
